Among the data in the RNAGym collection of RNA variant scans (doi:10.7554/elife.90254) are self-cleavage values, retold here.

Read counts are not given, so values of variants with three or more changes are uncertain.

The chains are these.
B1: OR4K15 (parent)
chain: GUUAACGGUCAUAGGCCAUGGAAACUAGGAGCACCAUUUCGCUGCCAGUGAAGAAAUGAACAAAGAAAAUCUGGGCCAGGCAGGCAUCAAAAGAAAUAGUCUUGCGCUCAACCAGAAAGUCUGUAAUCAUUUUAAGGGUA

The variants in this series derive from B1. Nature of the series: self-cleavage, relative activity (ratio to wild type); higher = more cleavage; in vitro, sequencing; the parent is a self-cleaving ribozyme.
On to GUUAACGGUCAUAGGCCAUGGAAACUAGGAGCGCCAUUUCGCUGCCAGUGGAGAAAUGAACAAAGAAAAUCUGGGCCAGGCAGGCAUCAAAAGAAGUAGUCCUGCGCUCAACCAGAAAGUCUGUAAUCAUUUUAAGGGUA [A33G A51G A96G U102C], for which the self-cleavage was found to be 1.68. For the variant GUUAACGGUCAUAGGCCAUGGAAACUAGGAGCGCCAUUUCGCUGCCAGUGGAGAAAUGAACAAAGAAAAUCUGGGCCAGGCAGGCACCAAAAGAAAUAGUCUUGCGCUCAACCAGAAAGUCUGUAAUCAUUUUAAGGGUA [A33G A51G U87C], the self-cleavage turned out to be 0.23. The figure for GUUAACGGUCAUAGGCCAUGGAAACUAGGAGCGCCAUUUCGCUGCCAGUGAGGAAGUGAACAAGGAUAAUCUGGGCCAGGCAGGCGUCCAAAGAAAUAGUCUUGCGCUCAACCAGAAAGUCCGUAAUCAUUUUAAGGGUA [A33G A52G A56G A64G A67U A86G A89C U122C] is 0.

Turning to GUUAACGGUCAUAGGCCAUGGAAACUAGGAGCGCCAUUUCGCUGCCAGUGCCGAAAUGAACAAAGAAAAUCUGGGCCAGGCAGGCAUCAAAAGAAAUAGUCUUGCGCUCAACCAGAAAGUCUGUAAUCAUUUUAAGGGUA [A33G A51C A52C], the self-cleavage was found to be 0.42. The figure for GUUAACGGUCAUAGGCCAUGGAAACUAGGAGCGCCAUUUCGCUGCCAGUGAAGGAAUGAACAAAGAAAAUCUGGGCCAAGCAGGCAUCAAAAGAAAUAGUCUUGCGCUCAACCAGAAAGUCUGUAAUCAUUUUAAGGGUA [A33G A54G G79A] is 0.08.

As for GUUAACGGUCAUAGGCCAUGGAAACUAGGAGCGCCAUUUCGCUGCCAGUGUAGAGAUGAACAAAGAAAAUCUGGGCCAGGCAGGCAUCAAAAGAAAUAGUCUUGCGCUCAACCAGAAAGUCUGUAAUCAUUUUAAGGGUA [A33G A51U A55G], the self-cleavage stood at 0.26. As for GUUAACGGUCAUAGGCCAUGGAAACUAGGAGCGCCAUUUCGCUGCCAGUGGAGAAAUGAACAAAGAUAAUCUGGGCCAGGCAGGCAUCAAAAGAAAUAGUCUUGCGCUCAACCAGAAAGUCUGUAAUUAUUUUAAGGGUA [A33G A51G A67U C128U], the figure is 1.25. The figure for GUUAACGGUCAUAGGCCAUGGAAACUAGGAGCGCCAUUUCGCUGCCAGUGUAGAAAUGAACAAUGAAAAUCUGGGCCAGGCAGGCAUCAAAAGAAAUAGUCUUGCGCUCAACCAGAAAGUCUGUAAUCAUUUUAAGGGUA [A33G A51U A64U] is 1.56; for GUUAACGGUCAUAGGCCAUGGAAACUAGGAGCGCCAUUUCGCUGCCAGUGAAGAGAUGAACAAAGAAAAUCUGGGCCAGGCAGGCAUCAAAAGAAAUUGUCUUGCGCCCAACCAGAAAGUCUGUAAUCAUUUUAAGGGUA [A33G A55G A98U U108C] it is 0.03; for GUUAACGGUCAUAGGCCAUGGAAACUAGGAGCGCCAUUUCGCUGCCAGUGGAGAAAUGAGCAAAGAAAGUCUGGGCCAGGCAGGCAUCAAAAGAAAUAGUCUUGCGCUCAACCAGAAAGUCUGUAAUCAUUUUAAGGGUA [A33G A51G A60G A69G] it is 0.82. The figure for GUUAACGGUCAUAGGCCAUGGAAACUAGGAGCGCCAUUUCGCUGCCAGUGAAGAGAUGAGCAAAGAAAAUCUGGGCCAGGCAGGCAUCAAAAGAAAUAGUCUUGCGCUCAACCAGAAAGUCUGUAAUCAUUUUAAGGGUA [A33G A55G A60G] is 0.23; for GUUAACGGUCAUAGGCCAUGGAAACUAGGAGCGCCAUUUCGCUGCCAGUGAAGAGAUGAACAAAGAAAAUCUGGGCCUGGCAGGCAUCAAAAGAAAUAGUCUUGCGCUCAACCAGAGAGUCUGUAAUCAUUUUAAGGGUA [A33G A55G A78U A117G] it is 0.13; for GUUAACGGUCAUAGGCCAUGGAAACUAGGAGCGCCAUUUCGCUGCCAGUGAAGUAAUGAACAAAGAAAAUCUGGGCCAGGCAGGCAUCAAAUGAAAUAGUCUUGCGCUCAACCAGAAAGUCUGUAAUCAUUUUAAGGGUA [A33G A54U A92U] it is 1.16. Consider GUUAACGGUCAUAGGCCAUGGAAACUAGGAGCGCCAUUUCGCUGCCUGUGAAGAAAUGAACAAAGAAAAUCAGGGCCAGGCAGGCAUCAAAAGAAAUAGUCUUGCGCUCAACCAGAAAGCCUGUAAUCAUUUUAAGGGUA [A33G A47U U72A U120C], for which the self-cleavage was found to be 0.06. As for GUUAACGGUCAUAGGCCAUGGAAACUAGGAGCGCCAUUUCGCUGCCAGUGAAGAGAUGAACAAAGAAAAUCUGGGCCAGGCAGGCAUCAAAAGAAAUAGUCUUGCGCUCAACCAGAAAGUCUGUAGUCAUUUUAAGGGUA [A33G A55G A126G], the figure is 0.97; as for GUUAACGGUCAUAGGCCAUGGAAACUAGGAGCGCCAUUUCGCUGCCAGUGAAGAGAUGAACAAAGAAAAUCGGGGCCAGGCAGCCAUCAAAGGAGAUAGUCUUGCGCUCAACCAGAAAGGCUGUAAUCAUUUUAAGGGUA [A33G A55G U72G G84C A92G A95G U120G], 0.09. The figure for GUUAACGGUCAUAGGCCAUGGAAACUAGGAGCGCCAUUUCGCUGCCAGUGGUGAAAUGAACAAAGAAAAUCUGGGCCAGGCAGGCGUCAAAAGAAAUAGUCUUGCGCUCAACCAGAAAGUCUGUAAUCAUUUUAAGGGUA [A33G A51G A52U A86G] is 0.29. As for GUUAACGGUCAUAGGCCAUGGAAACUAGGAGCGCCAUUUCGCUGCCAGUGAAGGAAUGAACAAAGAAAAUCUGGGCCAGGCAGGUAUCAAAAGAAAUAGUCUUGCGCUCAACCAGAAAGUCUGUAAUCAUUUUAAGGGUA [A33G A54G C85U], the figure is 0.62; as for GUUAACGGUCAUAGGCCAUGGAAACUAGGAGCGCCAUUUCGCUGCCAGUGGAGAAAUGAACAAAGAAAAUCUGGGCCAGGCAGGCAUCAAAAGAAAUAGUCUUGCGCUCAACCAGAAAGUCCGUAAUCAUUUUAAGGGUA [A33G A51G U122C], 0.18. GUUAACGGUCAUAGGCCAUGGAAACUAGGAGCGCCAUUUCGCUGCCAGUGAAGAGAUGAACAAAGAAAAUCUGGGCCGGGCAGGCAUCAAAAGAAAUAGUCUUGCGCUCAACCAGAAAGUCUGUAAUCAUUUUAAGGGUA [A33G A55G A78G]: the self-cleavage is 0.08. The figure for GUUAACGGUCAUAGGCCAUGGAAACUAGGAGCGCCAUUUCGCUGCCAGUGAAGGGAUGAACAAAGAAAAUCUGGGCCAGGCAGGCAUCAAAAGAAAUAGACUUGCGCUCAACCAGAAAGUCUGUAAUCAUUUUAAGGGUG [A33G A54G A55G U100A A140G] is 0.26.
